The values below come from PMC13083723 (Patterns, 2026).

The whole screen tested about 5,400 compounds, of which about 190 (3.5%) showed an effect of 50% or more. The list shows a part of the results. Positions of bridges follow the written chain, without caps; N, C: chain ends. Non-standard residues stand in square brackets, D forms with d. Residues, ends and D or L forms follow the SMILES beside them. *: point of attachment. Heptanoyl(5-Me) = CCC(C)CCCC(=O)*; Dab = NCC[C@H](N)C(=O)O

This assay relates to Vero-E6. Nature of the assay: primary screen, phospholipidosis by LipidTOX staining; higher = more effect of the substance. The settings on record: 10 µM. In a few lines: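 Single-concentration screen at 10 μM, with DMSO 0.1 v/v % and amiodarone 10 μM as controls. Read-out is LipidTOX Red phospholipid staining, which tolerates aldehyde fixation, in Vero-E6 cells.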
With `NC[C@H]1O[C@H](O[C@H]2[C@H](O)[C@@H](O[C@H]3O[C@H](CO)[C@@H](O)[C@H](N)[C@H]3O)[C@H](N)C[C@@H]2N)[C@H](N)C[C@@H]1O`, the result_ITMP is -2.69%. Take `COC(=O)NC(=S)Nc1ccccc1NC(=S)NC(=O)OC`: the result_ITMP came out at 1.29%. To `COc1ccc(-c2cc(=O)c3c(O)cc(O[C@@H]4O[C@H](CO[C@@H]5O[C@@H](C)[C@H](O)[C@@H](O)[C@H]5O)[C@@H](O)[C@H](O)[C@H]4O)cc3o2)cc1O` belongs -0.7%; to `C[N+](C)(C)NCCC(=O)[O-]`, -4.85%; to `CCC1(CC)C(=O)NC(=O)N(C)C1=O`, -0.15%. As to `CS(=O)(=O)CCNCc1nc(-c2ccc3ncnc(Nc4ccc(OCc5cccc(F)c5)c(Cl)c4)c3c2)cs1`, the result_ITMP came out at 2.46%. As for `CCOc1ccccc1OCCN[C@H](C)Cc1ccc(OC)c(S(N)(=O)=O)c1`, the figure is 20.3%; as for `C[C@@H]1CCCN1CCc1cc2cc(-c3ccc(C#N)cc3)ccc2o1`, 66.8%; as for `CCC(C)CCCC(=O)N[C@@H](CCN)C(=O)N[C@H](C(=O)N[C@@H](CCN)C(=O)N[C@H]1CCNC(=O)[C@H]([C@@H](C)O)NC(=O)[C@H](CCN)NC(=O)[C@H](CCN)NC(=O)[C@H](CC(C)C)NC(=O)[C@@H](CC(C)C)NC(=O)[C@H](CCN)NC1=O)[C@@H](C)O` (stereo partly drawn) [R4A_0005175_001 / SPE_A36456202] ({Heptanoyl(5-Me)}-[Dab]T[Dab][Dab][Dab][dL]L[Dab][Dab]T; lactam 4-C), -0.45%. As for `OC[C@H]1NCC[C@@H](O)[C@@H]1O`, the figure is -2.04%; as for `CC(=O)[C@H]1CC[C@H]2[C@@H]3CC[C@H]4C[C@H](O)CC[C@]4(C)[C@H]3C(=O)C[C@]12C`, 0.24%. For `CCCCCCCCCCCCC[N+](C)(C)Cc1ccccc1`, the result_ITMP is recorded as -2.95%. For the compound `CN(C)/N=N/c1ccc(C(=O)O)cc1`, the result_ITMP is given as -2.68%. Take `COc1ccc(Nc2ncnc3ccc(OC)cc23)cc1`: the result_ITMP is -9.56%. As to `CC[C@]1(O)C[C@@H]2C[N@@](CCc3c([nH]c4ccccc34)[C@@](C(=O)OC)(c3cc4c(cc3OC)N(C=O)[C@H]3[C@@](O)(C(=O)OC)[C@H](OC(C)=O)[C@]5(CC)C=CCN6CC[C@]43[C@@H]65)C2)C1`, the result_ITMP came out at 1.05%.

On to `CCn1cc(C(=O)O)c(=O)c2cnc(N3CCCC3)nc21`, for which the result_ITMP amounted to 7.42%. To `CCOc1cc(C=O)ccc1O` belongs -6.4%; to `CC(=O)Nc1c(I)c(C(=O)O)c(I)c(N(C)C(C)=O)c1I`, 3.92%.

As for `CC(C)(C)NC[C@H](O)c1ccc(O)c(CO)c1`, the result_ITMP is listed as -3.42%.

With `Clc1ccccc1CNC[C@H]1CC[C@H](CNCc2ccccc2Cl)CC1`, the result_ITMP is recorded as 111%.

`CN(C)C1CCN(C(=O)c2ccc(NC(=O)Nc3ccc(-c4nc(N5CCOCC5)nc(N5CCOCC5)n4)cc3)cc2)CC1`: the result_ITMP is -2.9%. To `CC(=O)O[C@]1(C(C)=O)CC[C@H]2[C@@H]3C=CC4=CC(=O)CC[C@]4(C)[C@H]3CC[C@@]21C` belongs -8.84%; to `COc1cc(C=O)c([N+](=O)[O-])cc1OC`, -11.7%; to `CCCCNC(=O)NS(=O)(=O)c1ccc(C)cc1`, -2.32%. To `C[C@@H]1O[C@@H](O[C@H]2[C@H](Oc3cc(O)c(C(=O)CCc4ccc(O)cc4)c(O)c3)O[C@H](CO)[C@@H](O)[C@@H]2O)[C@H](O)[C@H](O)[C@H]1O` belongs -7%; to `C[C@@H]1CC(=O)c2c(ccc3c2C(=O)c2cccc(O)c2C3=O)C1`, -0.1%. To `O=C(O)c1cc(-c2ccc(F)cc2F)ccc1O` belongs -2.89%. On to `Cc1cccc(-c2[nH]c(CNc3ccccc3F)nc2-c2ccc3ncnn3c2)n1`, for which the result_ITMP was -2.97%. As for `CCOC(=O)OC(C)OC1=C(C(=O)Nc2ccccn2)N(C)S(=O)(=O)c2ccccc21` (stereo not drawn), the figure is -0.19%. As for `O=C(Nc1c(Cl)cncc1Cl)c1ccc(OC(F)F)c(OCC2CC2)c1`, the figure is -1.64%; as for `CC(=O)[C@H]1CC[C@H]2[C@@H]3C[C@H](C)C4=CC(=O)CC[C@]4(C)[C@H]3[C@@H](O)C[C@]12C`, -3.27%. To `Cc1ccccc1/N=N/c1ccc(NC(=O)c2ccnn2C)c(C)c1` belongs -3.95%; to `CCCS(=O)(=O)Nc1ccc(F)c(C(=O)c2c[nH]c3ncc(-c4ccc(Cl)cc4)cc23)c1F`, -4.85%.

In the case of `C[C@H](CCC(=O)O)[C@H]1CC[C@H]2[C@@H]3C[C@H](O)[C@@H]4C[C@H](O)CC[C@]4(C)[C@H]3CC[C@]12C`, the result_ITMP was found to be 1.59%. To `COc1ccc2nc(NC(=O)Nc3ccccc3)sc2c1` belongs -0.57%; to `CCC(=O)O[C@]1(C(=O)CCl)[C@@H](C)C[C@H]2[C@@H]3C[C@H](F)C4=CC(=O)C=C[C@]4(C)[C@@]3(F)[C@@H](O)C[C@@]21C`, 4.24%; to `CC(C)Oc1ccc2c(=O)c3cc(C(=O)O)ccc3oc2c1`, -6.26%. As for `N#Cc1c(-c2ccccc2)cc(-c2cc(Br)ccc2O)[nH]c1=O`, the figure is -1.86%. As for `Cc1c(C(=O)NN2CCOCC2)nn(-c2ccc(Cl)cc2Cl)c1-c1ccc(I)cc1`, the figure is -3.78%; as for `O=C(c1cc(O)c(O)c(O)c1)c1ccc(O)c(O)c1O`, 10.6%; as for `C=C1C(=O)O[C@@H]2C[C@@]3(C)CCC[C@H](C)C3=C[C@H]12`, 2.6%. For the compound `Nc1ncnc2c1c(-c1ccc(Cl)cc1)nn2-c1cccc(-c2cnnn2Cc2cccc(-c3ccccc3)c2)c1`, the result_ITMP is 0.23%. As for `O=C(Nc1ccccc1C(=O)Nc1ccc(CCO)cc1)c1ccc([N+](=O)[O-])cc1`, the figure is 0.34%; as for `Cc1cnc(CNC(=O)c2c(=O)c3ccc(N4CCCN(C)CC4)nc3n3c2sc2ccccc23)cn1`, 5.49%.

Regarding `O=C(O)Cc1sc(-c2ccccc2)nc1-c1ccc(Cl)cc1`, the result_ITMP is listed as -1.64%. As for `CC(=O)OCC(=O)[C@@]12N=C(C)O[C@@H]1C[C@H]1[C@@H]3CCC4=CC(=O)C=C[C@]4(C)[C@H]3[C@@H](O)C[C@@]12C`, the figure is 0.49%; as for `C#CCN1C(C)=C(C(=O)OC)C(c2cccc([N+](=O)[O-])c2)C(C(=O)OCC)=C1C` (stereo not drawn), -8.73%. Consider `OCc1cc(C(O)CNCCCCCCOCCCCc2ccccc2)ccc1O` (stereo not drawn), for which the result_ITMP amounted to 20.5%. Take `CN1C(=O)N(c2cc(Cl)cc(Cl)c2)C(=O)[C@@]1(C)Cc1ccc(Br)cc1`: the result_ITMP is given as -1.86%.

For the compound `CCCCc1ccc(C(N)=O)nc1`, the result_ITMP was 2.05%. Consider `N=C(N)NCCC[C@H](N)C(=O)O`, for which the result_ITMP is listed as -5.83%.

As for `Cc1nc2n(c(=O)c1CCN1CCC(c3noc4cc(F)ccc34)CC1)CCCC2`, the result_ITMP is on record as 6.64%. As to `CNCCC(Oc1ccc(C(F)(F)F)cc1)c1ccccc1` (stereo not drawn), the result_ITMP was found to be 54.3%. To `CCC(=O)O[C@@H](OP(=O)(CCCCc1ccccc1)CC(=O)N1C[C@H](C2CCCCC2)C[C@H]1C(=O)[O-])C(C)C` (stereo partly drawn) belongs -3.03%; to `C[C@@H](CN1CC(=O)NC(=O)C1)N1CC(=O)NC(=O)C1`, -2.06%; to `O=C(C[C@H]1NCCC[C@@H]1O)Cn1cnc2cc(Br)c(Cl)cc2c1=O` (racemic), -8.46%. To `CC(=O)Nc1ccc(CC(=O)O)cc1` belongs -1.98%; to `CN1C(=O)C(F)=C[C@]2(C)[C@H]3CC[C@]4(C)[C@@H](C(=O)NCc5nc6cccnc6[nH]5)CC[C@H]4[C@@H]3CC[C@@H]12`, -2.39%; to `Nc1c(-c2cccc(C(F)(F)F)c2)nsc1C(=O)O`, -1.44%.

On to `C/N=c1/nc(-c2ccccc2)n(-c2ccccc2)s1`, for which the result_ITMP is given as -1.31%. To `Nc1ncnc2c1c(-c1cnc3[nH]ccc3c1)nn2C1CCCC1` belongs 3.22%.

`Cc1c[nH]c(=O)n(CCCN2CCN(c3ccccc3OCC(F)(F)F)CC2)c1=O`: the result_ITMP is recorded as -1.42%. As for `CC1=NN=C(c2ccc(N)cc2)c2cc3c(cc2C1)OCO3`, the figure is -5.77%. As for `COc1ccc2cc1Oc1ccc(cc1)C[C@H]1c3cc(c(OC)cc3CCN1C)Oc1c(OC)c(OC)cc3c1[C@H](C2)N(C)CC3`, the figure is 17.4%; as for `CCOCCOc1ccccc1C(N)=O`, -0.1%.

On to `C[C@]12C/C(=C/O)C(=O)C[C@@H]1CC[C@@H]1[C@@H]2CC[C@@]2(C)[C@H]1CC[C@]2(C)O`, for which the result_ITMP was determined as 3.4%. For the compound `O=C1CCc2cc(OCCCCc3nnnn3C3CCCCC3)ccc2N1`, the result_ITMP is recorded as -1.79%.

With `CC(=O)N1CCC(C(=O)N(CCCN2CCC(Cc3ccc(C(N)=O)cc3)CC2)c2ccc(C)c(Cl)c2)CC1`, the result_ITMP was -1.51%.

As to `N#C[C@@H]1C[C@@H]2C[C@@H]2N1C(=O)[C@@H](N)C12CC3CC(CC(O)(C3)C1)C2`, the result_ITMP is on record as -6.61%. As to `CCS(=O)(=O)CCn1c([N+](=O)[O-])cnc1C`, the result_ITMP is given as -5.29%.

For `CC[C@H]1OC(=O)[C@H](C)C(=O)[C@H](C)[C@@H](O[C@@H]2O[C@H](C)C[C@H](N(C)C)[C@H]2O)[C@](C)(OC)C[C@@H](C)C(=O)[C@H](C)[C@H]2N(CCCCn3cnc(-c4cccnc4)c3)C(=O)O[C@]12C`, the result_ITMP worked out at 4.79%. With `CCCCOc1cc(C(=O)NCCN(CC)CC)c2ccccc2n1`, the result_ITMP is reported as 47.8%. As for `CC(C)(C)NCC(O)c1cc(Br)no1` (stereo not drawn), the figure is 0.54%. As to `Oc1ccc(-c2nc3cc(O)cc(Br)c3o2)cc1`, the result_ITMP is -1.8%. As for `C1=Cc2cccc(OCC3CNCCO3)c2C1` (stereo not drawn), the figure is 25.4%. As for `CC[C@]1(O)C[C@@H]2C[N@@](CCc3c([nH]c4ccccc34)[C@@](C(=O)OC)(c3cc4c(cc3OC)N(C)[C@H]3[C@@](O)(C(=O)OC)[C@H](OC(C)=O)[C@]5(CC)C=CCN6CC[C@]43[C@@H]65)C2)C1`, the figure is 8.57%; as for `CCC(C)SSc1ncc[nH]1` (stereo not drawn), -2.3%; as for `CC1(C)S[C@@H]2[C@H](NC(=O)C(C(=O)[O-])c3ccsc3)C(=O)N2[C@H]1C(=O)[O-]` (stereo partly drawn), -2.7%.
